Among all 310,000 compounds or so, about 14,000 (4.5%) showed an effect of 50% or more. Effects have a minus sign here. The list shows a part of the results.
What follows are compounds tested against human ether-à-go-go-related gene (hERG) potassium channel (human, UniProt Q12809) (assay: primary screen, population patch clamp on CHO cells stably expressing hERG).
human ether-à-go-go-related gene (hERG) potassium channel, sequence (Q12809 whole entry, looked up): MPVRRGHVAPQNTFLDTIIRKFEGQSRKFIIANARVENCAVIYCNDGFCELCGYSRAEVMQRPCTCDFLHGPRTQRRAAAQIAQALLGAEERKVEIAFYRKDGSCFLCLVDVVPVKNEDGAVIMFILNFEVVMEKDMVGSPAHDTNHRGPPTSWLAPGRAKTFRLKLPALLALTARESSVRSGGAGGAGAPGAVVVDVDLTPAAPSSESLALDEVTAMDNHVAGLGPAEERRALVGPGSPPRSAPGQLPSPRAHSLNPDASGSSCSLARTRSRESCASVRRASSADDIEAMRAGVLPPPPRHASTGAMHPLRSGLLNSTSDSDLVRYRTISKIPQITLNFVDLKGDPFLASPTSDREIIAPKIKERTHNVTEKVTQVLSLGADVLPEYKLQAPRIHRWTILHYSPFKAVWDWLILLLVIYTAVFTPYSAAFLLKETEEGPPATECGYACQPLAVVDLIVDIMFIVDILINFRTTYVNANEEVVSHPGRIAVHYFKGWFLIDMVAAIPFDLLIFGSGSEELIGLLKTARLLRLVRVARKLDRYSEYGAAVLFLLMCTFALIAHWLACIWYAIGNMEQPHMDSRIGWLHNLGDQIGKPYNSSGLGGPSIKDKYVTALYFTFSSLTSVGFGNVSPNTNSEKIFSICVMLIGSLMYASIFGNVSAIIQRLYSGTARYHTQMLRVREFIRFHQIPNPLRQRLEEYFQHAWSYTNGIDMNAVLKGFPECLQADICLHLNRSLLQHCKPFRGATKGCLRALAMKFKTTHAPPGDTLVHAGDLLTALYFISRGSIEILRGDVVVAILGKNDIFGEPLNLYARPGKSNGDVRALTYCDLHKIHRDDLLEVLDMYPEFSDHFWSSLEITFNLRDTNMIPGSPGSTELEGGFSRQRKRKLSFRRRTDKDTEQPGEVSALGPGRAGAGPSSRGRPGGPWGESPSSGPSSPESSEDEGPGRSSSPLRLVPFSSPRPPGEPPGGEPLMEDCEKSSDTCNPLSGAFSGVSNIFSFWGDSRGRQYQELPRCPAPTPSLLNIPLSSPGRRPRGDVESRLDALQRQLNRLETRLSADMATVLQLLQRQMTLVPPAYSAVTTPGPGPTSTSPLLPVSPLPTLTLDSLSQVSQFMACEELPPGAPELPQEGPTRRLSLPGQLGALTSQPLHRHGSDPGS
With `C=CCn1c(NC(=O)c2ccc(Br)o2)c(S(=O)(=O)c2ccccc2)c2nc3ccccc3nc21` the “hERG current change (%, negative = inhibition) at 10uM” value was -4.03%.
In the case of `Cc1ncc(CN2CCN(Cc3ccc(F)cc3)C(CCO)C2)s1` (stereo not shown), the “hERG current change (%, negative = inhibition) at 10uM” value was 9.56%.
In the case of `COCCCNC(=O)CS(=O)Cc1nc(-c2ccccc2C)oc1C` (stereo not shown), the “hERG current change (%, negative = inhibition) at 10uM” value was -7.39%.
In the case of `Cc1c(Cl)c([N+](=O)[O-])nn1CC(=O)N1CCCc2ccccc21`, the “hERG current change (%, negative = inhibition) at 10uM” value was 30.5%.
`O=C(CSCc1ccccc1)NNC(=S)Nc1cccc(Cl)c1Cl` was tested, and the “hERG current change (%, negative = inhibition) at 10uM” value was 2.47%.
In the case of `Cl.Clc1ccc(CSC2=NCCCN2)cc1Cl`, the “hERG current change (%, negative = inhibition) at 10uM” value was -18.2%.
`CS(=O)(=O)N1N=C(c2ccccc2)CC1c1cccs1` (stereo not shown) was tested, and the “hERG current change (%, negative = inhibition) at 10uM” value was 0.0514%.
`C[C@@H]1CCC2[C@](C)(CO)[C@@H](O)CC[C@]2(C)[C@@]12CCC(CO)(CCO)O2` (stereo partly shown) was tested, and the “hERG current change (%, negative = inhibition) at 10uM” value was 26.8%.
For `Cc1ccc(CN2CCN(CC(C)C)C(CCO)C2)s1` (stereo not shown), the “hERG current change (%, negative = inhibition) at 10uM” value was -21.5%.
For `O=C(CN1C(=O)COc2ccccc21)N(CCCN1CCOCC1)CC1CC=CCC1` (stereo not shown), the “hERG current change (%, negative = inhibition) at 10uM” value was -29.2%.
In the case of `O=C(NCc1ccco1)C(c1cccs1)N(C(=O)C1COc2ccccc2O1)c1cccc(O)c1` (stereo not shown), the “hERG current change (%, negative = inhibition) at 10uM” value was -22.5%.
In the case of `O=C(NNC(=O)c1cccs1)c1cccnc1`, the “hERG current change (%, negative = inhibition) at 10uM” value was 6.86%.
In the case of `Nc1nc(CCl)nc(Nc2ccccc2)n1`, the “hERG current change (%, negative = inhibition) at 10uM” value was 20.7%.
For `COc1cccc(C(=O)NCCSc2ccc(F)cc2)c1`, the “hERG current change (%, negative = inhibition) at 10uM” value was -0.418%.
With `O=C(CSCc1c(Cl)cccc1Cl)Nc1cccnc1` the “hERG current change (%, negative = inhibition) at 10uM” value was -17.8%.
`COc1cc(NC2c3ccccc3C(=O)N2c2ccc(C)cn2)cc(OC)c1OC` (stereo not shown) was tested, and the “hERG current change (%, negative = inhibition) at 10uM” value was -14.3%.
In the case of `Br.C=CCn1c(=N)n(CC(=O)c2cccc([N+](=O)[O-])c2)c2ccccc21`, the “hERG current change (%, negative = inhibition) at 10uM” value was -56.7%.
`COc1ccc(/C=C(/NC(=O)c2ccccc2Cl)C(=O)NCCCC(=O)O)cc1` was tested, and the “hERG current change (%, negative = inhibition) at 10uM” value was 27.8%.
`CCn1c(Cc2ccccc2)nnc1SCC(=O)c1c(N)n(C2CC2)c(=O)[nH]c1=O` was tested, and the “hERG current change (%, negative = inhibition) at 10uM” value was -9.15%.
With `O=C(O)c1cncc(C#Cc2ccccc2)c1` the “hERG current change (%, negative = inhibition) at 10uM” value was 1.39%.
`COc1cc(C)c(Cl)c(C)c1S(=O)(=O)NCc1ccc2c(c1)OCO2` was tested, and the “hERG current change (%, negative = inhibition) at 10uM” value was 12.8%.
With `Cc1cccc(-c2cc(C(=O)NCc3ccccn3)c3ccccc3n2)c1` the “hERG current change (%, negative = inhibition) at 10uM” value was -18%.
With `CSc1ccccc1NC(=O)COC(=O)CSc1ccc(C)cc1` the “hERG current change (%, negative = inhibition) at 10uM” value was 11.2%.
For `O=C1C(C2=NC(c3ccccn3)C3C(=O)N(c4ccccc4)C(=O)C23)=C(O)c2ccccc21` (stereo not shown), the “hERG current change (%, negative = inhibition) at 10uM” value was 8.36%.
With `COc1ccc(/C=N/Nc2ccc(C(=O)O)cc2)cc1Br` the “hERG current change (%, negative = inhibition) at 10uM” value was 15%.
With `CC(C)CCn1c(SCC#N)nc2c(sc3ccccc32)c1=O` the “hERG current change (%, negative = inhibition) at 10uM” value was 3.96%.
`Cc1onc(-c2c(F)cccc2Cl)c1C(=O)NC(=S)NCc1cccnc1` was tested, and the “hERG current change (%, negative = inhibition) at 10uM” value was -16.4%.
For `COc1cc2c(CCNC(C)=O)c[nH]c2cc1O`, the “hERG current change (%, negative = inhibition) at 10uM” value was 4.18%.
With `O=C(Cn1cccc1C(=O)c1ccccc1)NCc1ccccn1` the “hERG current change (%, negative = inhibition) at 10uM” value was -0.399%.
`OC(CNCc1ccccc1C(F)(F)F)C(F)(F)F` (stereo not shown) was tested, and the “hERG current change (%, negative = inhibition) at 10uM” value was 14.1%.
For `Cc1cc(C(=O)CSc2nc(N)cc(=O)[nH]2)c(C)n1Cc1ccco1`, the “hERG current change (%, negative = inhibition) at 10uM” value was 5.46%.
With `Cc1cc(SCC(=O)OCC(=O)c2c(N)n(C)c(=O)n(C)c2=O)c(C)cc1Br` the “hERG current change (%, negative = inhibition) at 10uM” value was -3.76%.
With `Nc1cccc2nsnc12` the “hERG current change (%, negative = inhibition) at 10uM” value was 0.829%.
In the case of `CCN(CC)c1nc(N(CC)CC)[nH]c(=O)n1`, the “hERG current change (%, negative = inhibition) at 10uM” value was 2.62%.
For `O=C(/C=C/c1ccc([N+](=O)[O-])cc1)N1CCN(c2ccccc2F)CC1`, the “hERG current change (%, negative = inhibition) at 10uM” value was -34.2%.
In the case of `COc1ccc(-c2nc(C#N)c(NCc3ccc(C)cc3)o2)cc1OC`, the “hERG current change (%, negative = inhibition) at 10uM” value was 8.12%.
In the case of `O=C(Nc1ccc2oc(-c3ccccc3)nc2c1)c1ccc2c(c1)OCCO2`, the “hERG current change (%, negative = inhibition) at 10uM” value was 20.6%.
For `CC(C)NCCOc1cccc(Br)c1.O=C(O)C(=O)O`, the “hERG current change (%, negative = inhibition) at 10uM” value was 19.7%.
For `O=C(NCc1ccco1)c1ccc2c(c1)C(=O)N(Cc1ccccc1)C2=O`, the “hERG current change (%, negative = inhibition) at 10uM” value was -24.6%.
For `O=C(Nc1ccc(Cl)cn1)c1ccc2nccnc2c1`, the “hERG current change (%, negative = inhibition) at 10uM” value was -10%.
In the case of `Cc1ccc(NC(=O)CNCc2cccs2)c(Br)c1.Cl`, the “hERG current change (%, negative = inhibition) at 10uM” value was -7.26%.
In the case of `Cc1cc(OCC(=O)OCC(=O)NC2CCCC2)ccc1Cl`, the “hERG current change (%, negative = inhibition) at 10uM” value was 14.4%.
In the case of `CCCC(=O)c1cc(F)c(N2CCN(CCC#N)CC2)cc1C`, the “hERG current change (%, negative = inhibition) at 10uM” value was -18.7%.
`COc1ccc(OC(C)C(=O)N(C)Cc2nc(-c3cccc(C)c3)no2)cc1` (stereo not shown) was tested, and the “hERG current change (%, negative = inhibition) at 10uM” value was -7.38%.
`Cl.c1ccc2c(c1)CN1CCCC1=N2` was tested, and the “hERG current change (%, negative = inhibition) at 10uM” value was -2.64%.
With `CCS(=O)(=O)Nc1cccc(C2=NN(S(C)(=O)=O)C(c3ccccc3)C2)c1` (stereo not shown) the “hERG current change (%, negative = inhibition) at 10uM” value was -14.6%.
With `c1ccc(CSc2nnc3ccc(-c4cccs4)nn23)nc1` the “hERG current change (%, negative = inhibition) at 10uM” value was 3.64%.
In the case of `O=C(NCCCl)NNC(=O)c1cc2ccccc2cc1O`, the “hERG current change (%, negative = inhibition) at 10uM” value was 8.07%.
With `O=C(O)/C=C/c1cn(-c2ccccc2)nc1-c1cc2ccccc2oc1=O` the “hERG current change (%, negative = inhibition) at 10uM” value was 6.56%.
For `O=C(CNCc1cccnc1)Nc1cc(C(F)(F)F)ccc1N1CCOCC1.O=C(O)C(=O)O`, the “hERG current change (%, negative = inhibition) at 10uM” value was -67%.
In the case of `CC(C)(C)N(Cc1ccccc1)C(=O)COC(=O)C1CCN(c2ccc(C(F)(F)F)cn2)CC1`, the “hERG current change (%, negative = inhibition) at 10uM” value was 21.9%.
For `O=C(O)C1CC(c2cccc(Br)c2)=NO1` (stereo not shown), the “hERG current change (%, negative = inhibition) at 10uM” value was 13.1%.
In the case of `O=C(COC(=O)C12CC3CC(CC(C3)C1)C2)NC12CC3CC(CC(C3)C1)C2`, the “hERG current change (%, negative = inhibition) at 10uM” value was 5.33%.
With `O=C(NNC1=Nc2ccccc2SC1)c1ccc(F)cc1` the “hERG current change (%, negative = inhibition) at 10uM” value was 4.18%.
In the case of `CC1(C)O[C@@H]2[C@H](O1)[C@@H](COS(=O)(=O)[O-])O[C@H]2n1ccc(=O)[nH]c1=O.[K+]`, the “hERG current change (%, negative = inhibition) at 10uM” value was 11.7%.
For `COCCN(CC(=O)Nc1ccccc1)S(=O)(=O)c1ccc(S(=O)(=O)N2CCCC2)cc1`, the “hERG current change (%, negative = inhibition) at 10uM” value was 11%.
With `Cc1ccc(C)c(S(=O)(=O)Nc2ccc3[nH]c(=O)[nH]c3c2)c1` the “hERG current change (%, negative = inhibition) at 10uM” value was 15.7%.
For `COc1cc(/C=N/NC(=O)c2ccncc2)ccc1Oc1ccc([N+](=O)[O-])cn1`, the “hERG current change (%, negative = inhibition) at 10uM” value was -33.3%.
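Note: peak tail current of the secondary pulse compared with the same well before compound.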
